A word on the % Inhibition: it is the relative decrease from the control value, in per cent.

Hit rate of the full screen: of about 150,000 compounds, about 540 (0.36%) showed an effect of 50% or more. This is one part of the list.

This assay deals with Plasmodium falciparum. Kind of assay: Primary screen in NF54 nanoGlo assay, in single point, at 2uM, 72h; a lower Z score goes with more inhibition. The conditions noted are these: timepoint 72 hour. The assay is classed as functional, Erythrocyte.
`COc1cccc(CN2CCN(Cc3cnc(N4CCCC4)s3)C[C@@H]2CCO)c1`: the “% Inhibition” value is reported as -3% and the Z score came to 0.63.
Taken in the same sequence, the figures for `CC(CNC(C1CC1)C1CC1)N1CCOCC1C` (centres undefined) were -5% and 0.4.
Take `O=C(CC1CC1)Nc1ccnn1C1CCCCC1`: the “% Inhibition” value is -19% and the Z score is reported as 1.96.
On the same counts, the results for `O=C(Nc1ccc(N2CCN(C(=O)c3ccccc3)CC2)nc1)c1ccccc1` are -6% and 1.21.
In the case of `Cc1cc(=O)n(CCN(C)Cc2snnc2C)c(=O)[nH]1`, the “% Inhibition” value was -2% and the Z score is 0.37.
On the same counts, the results for `CCCn1c(=O)[nH]c2c(C(=O)N3CCN(C(C)C)CC3)snc2c1=O` are -10% and 1.69.
As to `Cc1ccc(-c2cc(C(N)=O)ccn2)c(-n2nc(C)cc2C)c1`, the “% Inhibition” value is on record as -8% and the Z score is recorded as 1.17.
On the same counts, the results for `CC(C)N1CCO[C@H](c2noc(C=Cc3cccnc3)n2)C1` are -15% and 1.25.
With `CC(=O)N(Cc1cc2ccc(C)cc2nc1O)C[C@H]1CCCO1`, the “% Inhibition” value is reported as -19% and the Z score was determined as 2.22.
In the case of `CC(=O)Nc1ccc(-c2cn([C@H]3CCCN(c4ncccn4)C3)nn2)cc1`, the “% Inhibition” value is -13% and the Z score amounted to 1.19.
With `CN(C)c1cccc(-c2cc(NCCO)nc(N)n2)c1`, the “% Inhibition” value is -2% and the Z score came to 0.38.
In the case of `Cc1noc(C)c1S(=O)(=O)Nc1ccc2c(c1)OC1(CCCC1)O2`, the “% Inhibition” value was found to be 5% and the Z score was -0.73.
Consider `COCCOCC(=O)Nc1ccc(OC(C)C)cc1`, for which the “% Inhibition” value is -4% and the Z score is 0.73.
Take `COC1(C)CN(C(=O)c2cnns2)C1`: the “% Inhibition” value is on record as 1% and the Z score was -0.27.
As to `O=C(COCC(F)(F)C(F)F)N1CCC[C@]2(CCC(=O)N(C3CC3)C2)C1`, the “% Inhibition” value is -13% and the Z score is 1.39.
As to `O=C(COc1ccccc1F)Nc1ccc(C2(c3ccc(NC(=O)COc4ccccc4F)cc3)CCCCC2)cc1`, the “% Inhibition” value is -8% and the Z score is 1.57.
Take `CCc1ocnc1C(=O)Nc1c(C)cnn1C(CC)CC`: the “% Inhibition” value is on record as -6% and the Z score was found to be 0.92.
Regarding `CC1COC(CO)CN1C(=O)Cc1cc2c(ccc3ccccc32)o1` (centres undefined), the “% Inhibition” value was 12% and the Z score is reported as -1.69.
Taken in the same sequence, the figures for `Cc1nc(CCNC(=NCc2ccccc2)NCC2CC2)cs1` were -4% and 0.44.
On the same counts, the results for `CN(C)S(=O)(=O)c1cccc(C(=O)NC2(C)Cc3ccccc3C2)c1` are -3% and 0.38.
On to `Cc1ncccc1CC(=O)N1CCCC[C@H]1c1nc(=O)[nH][nH]1`, for which the “% Inhibition” value was -8% and the Z score is given as 1.49.
On the same counts, the results for `Cc1cc(C)n([C@H](Nc2ccc(Br)cn2)c2ccc(Cl)cc2Cl)n1` are -39% and 4.54.
Regarding `O=C(Nc1cccc2ccccc12)c1ccc2c(c1)OCO2`, the “% Inhibition” value is reported as -11% and the Z score is 1.5.
`Cc1cccc([C@H](C)NCCc2cnn(C)c2)c1C`: the “% Inhibition” value amounted to 9% and the Z score was -0.93.
Turning to `CCN(CCCNC(=O)Nc1ccn(C(C)(C)C)n1)S(C)(=O)=O`, the “% Inhibition” value was 1% and the Z score was -0.13.
For `Cc1cc(C(=O)C[n+]2cc(Cl)n(C)c2)c(C)n1-c1ccc(OC(F)F)cc1`, the “% Inhibition” value is given as 19% and the Z score is -3.
For the compound `Nc1cc(C(=O)O)ccc1OCC(F)(F)F`, the “% Inhibition” value was -12% and the Z score came out at 1.88.
Taken in the same sequence, the figures for `Cc1ccc2ncccc2c1CNC(=O)N1CCN(Cc2nccn2C)CC1` were -12% and 1.7.
With `COC1CCC(NC(=O)N2CCc3ccccc3CC2)C1` (centres undefined), the “% Inhibition” value was -15% and the Z score turned out to be 1.51.
Taken in the same sequence, the figures for `COCc1ccccc1CNCc1ccc2c(c1)CCO2` were -10% and 1.23.
For `Cc1noc(C(C)C)c1C(=O)N1CC[C@H](C(=O)NCc2ccccc2)C1`, the “% Inhibition” value is -6% and the Z score was found to be 0.68.
Taken in the same sequence, the figures for `CC1(C)C(=O)Nc2ccc(C(=O)Nc3nc4n(n3)CCCC4)cc21` were -15% and 2.86.
On the same counts, the results for `CCOc1ccc(-c2cc(/C=C/c3ccc(OC)cc3)nc(-c3ccc(OCC)cc3)c2)cc1` are -16% and 1.85.
Regarding `O=C1CN(c2ccnc(C(=O)N3CCC[C@H]3c3ccn[nH]3)c2)CCN1`, the “% Inhibition” value is reported as -41% and the Z score is reported as 4.84.
Regarding `CN(C)c1ccc(NC(=O)CN(Cc2nc(-c3ccccc3)cs2)C(=O)Cn2nnc3ccccc32)cc1`, the “% Inhibition” value is -8% and the Z score is recorded as 1.2.
With `COCCNc1ncccc1-c1noc([C@@H]2CCCN2C2CCN(C)CC2)n1`, the “% Inhibition” value was -11% and the Z score was found to be 1.45.
As for `O=C(c1cc(-c2ccccc2)c(N2CCOCC2)s1)N1CCCc2ccccc21`, the “% Inhibition” value is given as -14% and the Z score is 2.18.
On to `COc1ccc2c(c1)CCc1c(C(=O)N3CCN(c4cc(=O)n(C)c(=O)n4C)CC3)n[nH]c1-2`, for which the “% Inhibition” value is given as -1% and the Z score is 0.19.
On to `CC(C)=C(F)c1nc(-c2cscn2)no1`, for which the “% Inhibition” value is on record as 2% and the Z score is recorded as -0.21.
Taken in the same sequence, the figures for `Cc1cccc(-c2[nH]ncc2CN2CC[C@](C)(O)C2)c1` were 3% and -0.52.
As for `Cc1ccc(NC(=O)NCc2ccccn2)nc1`, the “% Inhibition” value is on record as 36% and the Z score is -4.83.
Take `CN(C)c1ccc(C[C@@H](CO)Nc2ccncn2)cc1`: the “% Inhibition” value came out at 3% and the Z score was -0.45.

(Values after ChEMBL document CHEMBL4888484, “Replenishing the malaria drug discovery pipeline: Screening and hit evaluation of the MMV Hit Generation Library 1 (HGL1) against asexual blood stage Plasmodium falciparum ,using a nano luciferase reporter read-out” (2022).)
